Experimental data from PubChem BioAssay (NCI).
“And” between values parts separate entries of the source, which are not always exact repeats. Equal entries are not always repeated.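 Five concentrations, 48 hours, 96-well plates. GI50: concentration for 50% inhibition of growth. TGI is the concentration that stops growth completely.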

These compounds were tested on NCI-H322M lung (assay: DTP human tumour cell line panel, 48 h).

| SMILES | TGI | GI50 [µM] |
| --- | --- | --- |
| O=c1[nH][nH]c(=O)n1Cc1ccccc1 | > 100 µM |  |
| Cc1cc(S(=O)(=O)Nc2nc3ccccc3c(=O)n2Cc2ccco2)c(S)cc1Cl | > 100 µM | 42.3 |
| C[C@@H](NC1CCCC[C@@H]1O)c1ccccc1 (stereo not given in full) | > 100 µM |  |
| CS(=O)(=O)N1CCC(Nc2ncc(C(=O)c3c(F)cccc3F)c(N)n2)CC1 | > 25 µM | 15.7 |
| O=C(O)C1=Cc2cccc3cccc(c23)C1=O | > 100 µM |  |
| Nc1nc(N)c2cc(S(=O)(=O)c3ccc4ccccc4c3)ccc2n1 | > 100 µM |  |
| CNC(=O)/C=C/C1=CN2C(=O)c3ccc(C)c(O)c3NC(OC)C2C1 (stereo not given) | 0.307 µM |  |
| Cc1ccc(C(=O)NC2C(=O)NC(C(C)C)C(=O)N3CCCC3C(=O)N(C)CC(=O)N(C)C(C(C)C)C(=O)OC2C)c2c1Oc1c(c(C(=O)NC3C(=O)NC(C(C)C)C(=O)N4CCCC4C(=O)N(C)CC(=O)N(C)C(C(C)C)C(=O)OC3C)c3nc(-c4ccccc4)c(=O)oc3c1C)N2 (stereo not given) | 0.0495 µM |  |
| COC(=O)C1C(C(=O)O)C2(c3ccccc3)C(=O)C1(c1ccccc1)C(c1ccc(OC)cc1)=C2c1ccc(OC)cc1 (stereo not given) | 81.4 µM | 30.9 |
| COC(=O)CN1Cc2cc(C)cc(c2O)CN(CC(=O)OC)Cc2cc(C)cc(c2O)CN(CC(=O)OC)Cc2cc(C)cc(c2O)CN(CC(=O)OC)Cc2cc(C)cc(c2O)C1 | 50 µM and > 100 µM | 28.8 |
| CC[C@]12C=CCN3CC[C@@]4(c5ccc(OC)cc5N(C)[C@H]4[C@@](O)(C(=O)OC)[C@@H]1OC(=O)CCC(=O)O[C@H]1CC[C@H]4[C@@H]5CCC6=CC(=O)CC[C@@H]6[C@H]5CC[C@]14C)[C@@H]32 | > 50 µM | 2.74 |
| CCCCCCCCCN=C(N)c1ccc(N2CCN(c3ccc(C(N)=NCCCCCCCCC)cc3)CC2)cc1 | 8.75 µM | 2.74 |
| CS(=O)(=O)Nc1cc(-c2ccc3ncc(C#N)c(Nc4ccc(F)c(Cl)c4)c3c2)cnc1Cl | 1.58 µM | 0.321 |
| O=c1ccn(C/C=C/c2ccccc2)c(=S)n1C/C=C/c1ccccc1 | > 100 µM |  |
| OC1CC(O)O[C@H](c2ccccc2)C1 (stereo not given in full) | > 100 µM |  |
| c1ccc2c(c1)nc1ccccn12 | > 100 µM |  |
| CC1(C)N=C(N)N=C(N)N1c1ccc(OCC(=O)Nc2ccc(S(=O)(=O)F)cc2Cl)c(Cl)c1 | > 100 µM | 6.65 |
